The mass density is mass per unit of volume.

A short description of this data set: xn = mol fraction of the nth substance listed. To be noted: 101 kPa.

The densities may have been worked out from excess volumes.

As to `C[P+](c1ccccc1)(c1ccccc1)c1ccccc1.[Br-]` + OCC(O)CO, the mass density reads like this: (298.19 K, x2 = 0.75) 1297.4 kg/m3; (323.16 K, x2 = 0.75) 1280 kg/m3; (343.26 K, x2 = 0.75) 1267 kg/m3.

Turning to `[Cl-].c1ccc(C[P+](c2ccccc2)(c2ccccc2)c2ccccc2)cc1` + OCC(O)CO, the mass density turned out to be 1242.4 kg/m3 (298.19 K, x2 = 0.9412); 1238.1 kg/m3 (303.21 K, x2 = 0.9412); 1230.1 kg/m3 (313.26 K, x2 = 0.9412); 1224.3 kg/m3 (323.3 K, x2 = 0.9412); 1219.3 kg/m3 (333.07 K, x2 = 0.9412); 1211.3 kg/m3 (343.26 K, x2 = 0.9412). Further, the mass density (353.16 K, x2 = 0.9412) came out at 1205.5 kg/m3.

Values taken from a compilation of properties of binary mixtures (doi:10.1016/j.molliq.2015.11.032).
